# Measurements published in PubChem BioAssay AID488969 (Vanderbilt High Throughput Screening Facility, 2010).
# Whole data set: some 110,000 compounds, median “z-score” near -0.1, cut for the highest 2% near 2. The list shows a part of the results. Activity calls are given as the source filed them.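 How the source made its calls: active means z-score in the third read window above 3 or below -3; inactive means the rest.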
# Target: Metabotropic glutamate receptor 8 (Rattus norvegicus) (UniProt P70579)
# Assay: rat mGluR8 modulators via GIRK flux, primary screen, cell-based, thallium flux, HTS (AID 488969)
# Settings: HEK293 rat mGluR8, GIRK (G protein-gated inwardly rectifying potassium channel) thallium flux, FluoZin2; at 10 µM; stronger effect = higher value; submaximal glutamate (EC20) added with thallium
# Sequence of UniProt P70579 (P70579 whole entry, looked up): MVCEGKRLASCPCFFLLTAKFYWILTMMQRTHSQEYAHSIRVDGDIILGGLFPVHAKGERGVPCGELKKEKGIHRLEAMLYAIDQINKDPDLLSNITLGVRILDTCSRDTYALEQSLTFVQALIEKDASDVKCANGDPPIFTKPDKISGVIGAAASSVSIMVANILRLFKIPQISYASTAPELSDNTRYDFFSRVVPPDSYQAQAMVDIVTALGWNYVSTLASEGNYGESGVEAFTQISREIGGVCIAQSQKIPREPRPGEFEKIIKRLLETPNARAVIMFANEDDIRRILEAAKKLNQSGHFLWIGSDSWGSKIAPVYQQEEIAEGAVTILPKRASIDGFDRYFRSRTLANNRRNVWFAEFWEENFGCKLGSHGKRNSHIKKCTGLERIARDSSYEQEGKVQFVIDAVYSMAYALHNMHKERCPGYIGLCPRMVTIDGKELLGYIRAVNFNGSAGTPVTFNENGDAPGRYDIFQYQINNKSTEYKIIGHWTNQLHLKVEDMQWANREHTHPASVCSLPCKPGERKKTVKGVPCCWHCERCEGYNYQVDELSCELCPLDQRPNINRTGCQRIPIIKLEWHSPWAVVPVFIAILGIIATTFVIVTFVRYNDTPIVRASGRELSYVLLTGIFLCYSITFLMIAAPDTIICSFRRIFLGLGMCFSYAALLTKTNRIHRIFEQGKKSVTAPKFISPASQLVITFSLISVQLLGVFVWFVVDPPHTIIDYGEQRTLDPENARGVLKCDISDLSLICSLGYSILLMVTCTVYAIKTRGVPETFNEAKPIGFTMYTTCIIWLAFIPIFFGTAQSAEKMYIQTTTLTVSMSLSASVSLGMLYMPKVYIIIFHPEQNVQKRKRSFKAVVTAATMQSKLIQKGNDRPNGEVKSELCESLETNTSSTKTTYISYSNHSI
row,Compound,z-score
1,Cn1c(Cc2cccc3ccccc23)nnc1SCC(=O)N1CCN(c2ccccc2)CC1,-0.22
2,COc1ccc(CCNC(=O)C2CCN(S(=O)(=O)c3ccc(OC)c(OC)c3)CC2)cc1,-0.362
3,COc1cc(/C=N/NC(=O)CCN2CCN(Cc3ccccc3)CC2)cc(OC)c1OC,-0.854
4,Cc1ccc(OCC(=O)Nc2ccc(C)c(S(=O)(=O)N3CCCCC3)c2)c([N+](=O)[O-])n1,active: 6.89
5,CCCNC(=O)CSc1nc(-c2cccs2)cc(C(F)(F)F)n1,-0.0921
6,Cc1ccc(NC(=O)N(CCCN2CCOCC2)Cc2cccnc2)cc1C,0.519
7,O=C(C1CC1)N1CCc2[nH]c3ccccc3c2C1,-0.366
8,CCC(C)NC(=O)CSc1ccc(Cl)cc1 (centres undefined),-0.0343
9,CCOCCNC(=O)c1ccc2c3c(cccc13)CC2,-0.367
10,COc1cc2cc(CN(CCc3cccc(C)c3)C(=S)NCCCN(C)C)c(=O)[nH]c2cc1OC,-0.102
11,Cc1ccc(C2(CCN)CCOC(C(C)C)C2)cc1 (centres undefined),0.445
12,Clc1cccc(-c2nnc(SC/C=C/c3ccccc3)n2Cc2ccco2)c1,-0.854
13,Oc1ccc2[nH]cnc2c1CN1CCCCC1,0.149
14,CCOc1ccc(NC(=O)CCSc2nnc(C)s2)cc1,-0.0489
15,COc1c(Cl)cc(C(=O)Nc2ccccc2-c2ccccc2)cc1Cl,-0.38
16,CC1(C)Cc2ccccc2-c2nnc(-c3ccc4ccccc4n3)n21,-0.669
17,CCOC(=O)C1=C(N)N2C(=O)CSC2=C(C(=O)OC)C1,-0.493
18,CN(C)Cc1nc2c([nH]1)c(=O)n(C)c(=O)n2C,-0.0706
19,CC1=Nc2ccccc2/C1=C\c1sc(Nc2ccc(C)cc2)nc1O,-0.00838
20,O=C(c1cc([N+](=O)[O-])ccc1N1CCCCC1)N1CCCC1,0.437
21,COc1ccc(-c2noc(N3CCC(C(=O)N4CCN(c5ccccn5)CC4)CC3)n2)cc1,0.828
22,Fc1ccc(CSc2ccc(-c3cccs3)nn2)cc1,0.256

row,Compound,z-score
1,COc1ccc(N2C(=O)CC(N3CCC(c4nc5ccccc5[nH]4)CC3)C2=O)cc1 (centres undefined),0.404
2,CCc1ccc(NC(=O)N(Cc2ccco2)C(C)c2cccs2)cc1 (centres undefined),-0.86
3,CCn1nc(C(=O)Nc2cccc(C(F)(F)F)c2)c(Cl)c1Cl,-0.195
4,CCCCCOc1ccc(C2NC(=O)NC2=O)cc1 (centres undefined),-0.531
5,CC(C)N(C(=O)CSc1nnc(CNc2ccc(F)cc2)o1)C(C)C,0.768
6,O=C1NC(=S)N/C1=C/c1cccc([N+](=O)[O-])c1O,-0.173
7,[O-][n+]1onc2c1CCc1nnccc1-2,0.0617
8,N#CC(C#N)=C1CCc2ccccc2N1,0.151
9,COc1ccc(-c2nnc3n2-c2ccccc2SC3)cc1OC,0.00806
10,CCc1cccc2c(C=C(C#N)C#N)cn(CC(=O)N3CCCC3)c12,0.0864
11,CC1=CCC(C(=O)O)(C(=O)N/N=C/c2cccs2)C(c2ccc([N+](=O)[O-])cc2)C1 (centres undefined),0.0201
12,CCOc1ccccc1N(C(=O)Nc1cccc(Cl)c1)C1=NC(C)CS1 (centres undefined),-0.262
13,CCN1CCN(c2ccc(NC(=O)c3cccc(OCc4ccccc4)c3)cc2)CC1,0.152
14,CCCOc1ccc(CCN2CCC(=O)NC2=O)cc1C,-0.241
15,CCOC(=O)CCP(=O)(O)C(O)(c1ccccc1)c1ccccc1,0.107
16,CCCN(CCC)S(=O)(=O)c1ccc(NS(C)(=O)=O)cc1,0.465
17,Cn1nnnc1SCC(=O)NCc1cccc(C(=O)O)c1,-0.667
18,COc1ccccc1C(=O)Nc1ncc2c(n1)CC(c1ccco1)CC2=O (centres undefined),-0.749
19,CCN1CCN(CC(=O)Nc2cc(F)ccc2C)CC1,0.149
20,CN(C)S(=O)(=O)NCc1ccc2c(c1)OCO2,-0.0624
21,CN(Cc1ccccc1)Cc1c[nH]c2ccccc12,0.302
22,CCCCCC(C)n1[nH]c(=O)c2c(C)cc(C)nc21 (centres undefined),-0.343

row,Compound,z-score
1,Cn1cnnc1Sc1ccc(C(=O)OCC(=O)Nc2cc(Cl)cc(Cl)c2)cc1[N+](=O)[O-],-0.215
2,Cc1ccc(OCC(=O)NCC(=O)Nc2ccc(F)cc2)c([N+](=O)[O-])n1,-0.232
3,CCOC(=O)c1cc(C)[nH]c(=S)c1C#N,-0.21
4,O=C(CSc1ncn[nH]1)c1cccc([N+](=O)[O-])c1,-0.14
5,Cc1ccc(CSc2ccc(-c3ccc4c(c3)OCO4)nn2)cc1,-0.188
6,CC(C)(C)c1ccc(CS(=O)(=O)CC2(O)CCN(C(=O)c3cccc(C(F)(F)F)c3)CC2)cc1,-0.302
7,COC(=O)c1sccc1NC(=O)COc1ccccc1Cl,-0.212
8,O=C(CCCOc1ccc(Cl)cc1Cl)NCC1CCCO1 (centres undefined),-0.403
9,O=c1c2c(nc3c(-c4ccccc4)c[nH]n13)CCC2,-0.819
10,CCC1CCCCN1C(=O)CSc1nnc(-c2ccc3c(c2)OCCO3)o1 (centres undefined),0.663
11,COc1ccc(C2C(C#N)=C(N)N(Nc3ccccc3)C3=C2C(=O)CC(C)(C)C3)cc1C (centres undefined),0.00246
12,Cc1ccccc1NC(=O)Nc1nc2ccc(S(C)(=O)=O)cc2s1,0.0297
13,CC(C)(C)c1ccc(CNc2cc(N3CCOCC3)ccc2[N+](=O)[O-])cc1,-0.109
14,Cc1ccc(CNC(=O)CSc2nc3ccccc3c(=O)n2CCCO)cc1,0.714
15,CCOC(=O)c1c(-c2ccc(OC)cc2)csc1NC(=O)CCN1C(=O)c2ccccc2C1=O,-0.295
16,CCOc1ccc(C2=NNC(c3cccs3)=Nc3ccc(OC)cc32)cc1,active: 3.11
17,O=C(CN1CCN(c2ccc(F)cc2)CC1)N1N=CCC1c1ccccc1 (centres undefined),-0.196
18,COc1cccc(N2CCN(C(=O)CN(C)S(=O)(=O)c3ccc4c(c3)CCC(=O)N4)CC2)c1,-0.236
19,Cn1ncc(Cl)c1C(=O)Nc1cc(C(F)(F)F)ccc1F,0.242
20,Cc1c(NC(=O)CSc2nnc3c4ccccc4n(CCc4ccccc4)c3n2)c(=O)n(-c2ccccc2)n1C,-0.952
21,Cn1c(=O)n(CCc2ccccc2)c(=O)c2c1nc1n2CCN1Cc1ccco1,-0.632
22,CC1CCCN(C(=O)Cn2c(=O)oc3ccccc32)C1 (centres undefined),-0.144

row,Compound,z-score
1,COC(=O)C1=NNCC12CC(=O)N(c1ccc(Br)cc1)C2=O (centres undefined),-0.0964
2,CCOc1ccc(S(=O)(=O)n2cc(-c3ccc(F)cc3)c(N)n2)cc1,0.129
3,CC1(C)CC(=O)C(N=Nc2cc(Cl)c(Cl)c(Cl)c2)=C(O)C1,-0.43
4,Cc1cc(C)n(-c2cc(Cl)cc(Cl)c2)c(=O)c1C#N,-0.0415
5,COc1ccc(-c2nnn(CC(=O)NCCc3c[nH]c4ccccc34)n2)cc1OC,-0.399
6,COc1cccc(/C=N/N2CCN(c3ccccc3OC)CC2)c1,0.17
7,O=C(Oc1ccc(-c2ccccc2)cc1)N1CCCCC1,-0.0639
8,CC(C)OC(=O)c1c(NC(=O)c2ccco2)sc2c1CCCCC2,-0.501
9,COc1ccc2nc(NC(=O)CSc3nccc(C)n3)sc2c1,1.81
10,COc1ccc(NC(=O)Cn2c(=O)n(Cc3ccco3)c(=O)c3ccccc32)cc1,-0.236
11,Cc1c(NC(=O)NCCN2C(=O)C3C4C=CC(C4)C3C2=O)c(=O)n(-c2ccccc2)n1C (centres undefined),-0.389
12,O=C(C[n+]1ccc(C(=O)N/N=C/c2ccc(Br)cc2)cc1)c1ccccc1,0.236
13,CCN(CCCNC(=O)CN1C(=O)COc2ccccc21)c1cccc(C)c1,-0.133
14,COc1ccccc1C(=O)C(O)c1ccccc1OC (centres undefined),-0.247
15,Cc1ccc2nc(-c3ccc(NS(=O)(=O)c4ccc(F)c(F)c4)cc3)sc2c1,-1.63
16,CCN(CC)S(=O)(=O)c1ccc2c(c1)C(=NO)c1cc(S(=O)(=O)N(CC)CC)ccc1-2,-0.117
17,Cc1cc(C)cc(-n2c(N)c(C(=O)Nc3c(C)n(C)n(-c4ccccc4)c3=O)c3nc4ccccc4nc32)c1,0.0565
18,O=C(Nc1cccnc1)c1ccccc1F,0.0767
19,Cc1ccc(NS(=O)(=O)c2cccc(C(=O)N3CCOCC3)c2)cc1,0.907
20,CCN(CCO)C(=O)C(c1ccccc1)c1ccccc1,-0.118
21,CC(NC(=O)Cc1cccs1)C(c1cccs1)N1CCN(c2ccccc2)CC1 (centres undefined),-0.107
22,CCSC1=C(C#N)C(c2cccc(OC)c2)CC(=O)N1 (centres undefined),0.0816

row,Compound,z-score
1,Cc1ccc(NC(=O)c2ccc(OC(=O)CCN3C(=O)c4ccccc4C3=O)cc2)cc1,0.0217
2,CCOc1ccc(C(=O)NNC2CC(=O)N(CCc3ccccc3)C2=O)cc1OC (centres undefined),-0.0282
3,CCCCOc1ccc(S(=O)(=O)NNC(=O)c2cc3ccccc3o2)cc1,-0.113
4,Cc1ccc(C(=O)Nc2nc(COc3ccccc3)cs2)s1,0.226
5,CCCn1c(=O)c(C(=O)NCc2ccccn2)c(O)c2ccccc21,-0.781
6,O=C(NCc1ccncc1)C(=O)NCC(c1ccco1)N1CCN(c2ccccc2F)CC1 (centres undefined),-0.192
7,CNc1nc(OCCNC(=O)Nc2ccccc2)nc(N2CCOCC2)n1,-1.08
8,COc1ccc(CC(=O)Nc2ccc(-c3noc(-c4ccccc4OC)n3)cc2)cc1,0.0856
9,Cc1cccc(N2CCN(C3=NC(=O)/C(=C\c4cn[nH]c4-c4ccccc4)S3)CC2)c1,0.239
10,O=C1NCC(c2ccccc2)C1C(=O)N/N=C\c1ccc(-c2ccc(Cl)c(Cl)c2)o1 (centres undefined),0.0259
11,Cc1cc(C)n(S(=O)(=O)c2ccc(C(C)(C)C)cc2)n1,-1.41
12,CCOC(=O)C(=CNc1cc(C)nn1C(C)(C)C)C(=O)OCC,-0.0177
13,COC(=O)/C(=N/Nc1ccccc1Cl)Sc1nnc(C(O)c2ccccc2)n1-c1ccccc1 (centres undefined),-0.58
14,COc1ccc(NC(=O)C2CCN(C(=O)c3cccs3)CC2)cc1,0.195
15,CC1CC(C)CN(c2cc(=O)n(Cc3ccc(F)cc3)c(=O)[nH]2)C1 (centres undefined),-0.074
16,COc1cc(NC(=O)C2CC(=O)NC3=C2C(=O)CCC3)c(OC)cc1Cl (centres undefined),-0.0285
17,COc1ccc(C(=O)N(CN2CCCC2=O)c2nccs2)cc1OC,0.187
18,NC(=S)N/N=C\c1c2ccccc2cc2ccccc12,0.0922
19,C/C(=N/NC(=O)c1ccc(O)cc1)c1cccc([N+](=O)[O-])c1,-0.369
20,COC(=O)C1C(=O)OC(C)(C)C1C(C)C(=O)c1ccccc1 (centres undefined),-0.375
21,Cc1ccc(NC(=O)c2csc(-c3ccccc3)c2C)cc1,-0.222
